From PubChem BioAssay AID1345083 (National Center for Advancing Translational Sciences (NCATS), 2018)
Screen size: about 94,000 compounds; about 6,200 (6.6%) were called active. The shares of active, inactive and inconclusive entries below differ from those in the screen. Calls come from the whole dose curve; as a rule, active = well fitted inhibition curve with a large enough effect; inconclusive = small, poorly fitted or top-dose-only effect; inactive = flat fitted curve, though single readings scatter. Potencies of inconclusive entries are doubtful fits and often do not repeat.
Potency is the fitted concentration of half-maximal effect; tags give direction and shape of the fitted curve.

Test: Cytotoxic Profiling in HEK 293 Cell Line of Diverse Libraries Using Quantitative High-Throughput Screening; note: nearly all actives have a fitted effect of over 60% in size
Conditions: HEK 293 viability, ATP luminescence (CellTiter-Glo), 48-72 h; series mostly up to 115 µM
Procedure, shortened: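 HEK 293 cells seeded at 250 cells/well were exposed to compound for 48 or 72 hr at 37 degree Celsius. Viability taken as ATP content by CellTiter-Glo luminescence.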
With `C[C@H]1[C@@H]2[C@@H](O)C([C@H](C)C(=O)N3CCc4ccccc4C3)CC[C@@]2(C)CC[C@@H]1NC(=O)c1cnccn1` (stereo partly specified) the Potency was inconclusive: 89.1 µM [inhibitor, partial curve, poor fit]. With `CN1C(=O)c2cccn2CC1CNC(=O)c1ccccc1` (stereo unspecified) the Potency was inconclusive: 56.2 µM [inhibitor, partial curve, poor fit]. In the case of `CCCNC1(Cc2cc(C(=O)N3CCCCC3)on2)COC1`, the Potency is reported as “inactive”. For `COC(=O)C1CCN([C@H]2[C@@H]3OC[C@@H](O3)[C@@H](NC(=O)Nc3cccc(OC)c3)[C@@H]2O)CC1`, the Potency was “inactive”. With `COc1ccc(-c2nn(-c3ccccc3)cc2CN2CCN3CCCC3C2)c(F)c1` (stereo unspecified) the Potency was inconclusive: 35.5 µM [inhibitor, full curve]. With `O=C(NC[C@H]1Cn2c(-c3ccc(F)cc3)cnc2CO1)C1CC1` the Potency was “inactive”. With `C=CCOc1cccc(-c2nc(C(=O)Nc3ccccc3)cs2)c1` the Potency was inconclusive: 50.1 µM [inhibitor, partial curve, poor fit]. In the case of `Cn1nccc1C(=O)N1CCc2ccc(NC(=O)C3(c4ccccc4)CC3)cc2C1`, the Potency is reported as inconclusive: 79.4 µM [inhibitor, single point]. For `COCCOc1ccc2c(n1)CCN(C(=O)c1ccccc1OC)C2`, the Potency was inconclusive: 89.1 µM [inhibitor, single point]. In the case of `O=C(c1ccccn1)N1CCC2(CC1)CC(N1CCN(c3ccccc3)CC1)CCO2` (stereo unspecified), the Potency is reported as inconclusive: 44.7 µM [inhibitor, partial curve]. In the case of `COc1ccccc1N1CCN(C(=O)C[C@@H]2CCNC[C@@H]2Cc2cc(-c3ccccc3)on2)CC1`, the Potency is reported as inconclusive: 79.4 µM [inhibitor, partial curve, poor fit]. In the case of `O=C(NCc1cccc2ccccc12)C1(c2ccc(Cl)cc2)CCOCC1`, the Potency is reported as inconclusive: 50.1 µM [inhibitor, partial curve, poor fit]. In the case of `Cc1cc(CN(C)C(=O)c2cc(COc3ccc(F)cc3F)on2)n[nH]1`, the Potency is reported as inconclusive: 89.1 µM [inhibitor, single point]. For `O=C(CCC1CCCN(CCCn2cccn2)C1)Nc1ccc(C(F)(F)F)cc1` (stereo unspecified), the Potency was inconclusive: 89.1 µM [inhibitor, single point]. In the case of `CCOc1cc(=O)n2c(c1C(=O)Nc1cccc(OC)c1)CCCC2`, the Potency is reported as inconclusive: 89.1 µM [inhibitor, partial curve, poor fit]. With `O=C(c1ccccc1Cl)N1CCC2(CC1)CCN(CCc1ccccc1)c1ccccc1O2` the Potency was inconclusive: 56.2 µM [inhibitor, partial curve, poor fit].
